# In the supplement of paper PMC8728848:
# The list shows a part of the results.
# B1: CML1 (Coprinopsis cinerea) (protein)
# chain: MAIFHTGSELFIITRGPGKLTLLTWGGLNNLRSVIGAIPTENTGVTKWAVSFSHNYTRFSFIWEGQGEACYQIGNGLTRSPVGRSWSSSSTIHWGSSTVITEDVTSVVPGAVNRDKVTTAYALPDNL
# Columns and labels:
# Test in all cases: glycan array binding signal (z-score within array); higher = stronger binding
# Conditions in all cases: glycan notation: IUPAC condensed, linker removed
# [1] = biological target: GlcNAc(a1-6)Gal(b1-4)GlcNAc
# Method in brief: (§1)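 The Consortium for Functional Glycomics database supplied 3228 glycan arrays, of which those lacking an available protein sequence were dropped. The binding signal, a within-array Z-score, was averaged across arrays of the same protein sequence and across linkers. Negative scores can be read as non-binding.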
# [2] = biological target: GlcNAc(b1-2)Gal(b1-3)GalNAc
# Method in brief: as §1
# [3] = biological target: GlcNAc(b1-2)Man(a1-3)[GlcNAc(b1-2)Man(a1-6)]Man(b1-4)GlcNAc(b1-4)GlcNAc
# Method in brief: as §1
# [4] = biological target: GlcNAc(b1-2)Man(a1-3)[GlcNAc(b1-2)Man(a1-6)]Man(b1-4)GlcNAc(b1-4)[Fuc(a1-6)]GlcNAc
# Method in brief: as §1
# [5] = biological target: GlcNAc(b1-2)Man(a1-3)[GlcNAc(b1-4)][GlcNAc(b1-2)Man(a1-6)]Man(b1-4)GlcNAc(b1-4)GlcNAc
# Method in brief: as §1
# [6] = biological target: GlcNAc(b1-2)Man(a1-3)[GlcNAc(b1-4)][GlcNAc(b1-2)Man(a1-6)]Man(b1-4)GlcNAc(b1-4)[Fuc(a1-6)]GlcNAc
# Method in brief: as §1
# [7] = biological target: GlcNAc(b1-2)[GlcNAc(b1-4)]Man(a1-3)[GlcNAc(b1-2)Man(a1-6)]Man(b1-4)GlcNAc(b1-4)GlcNAc
# Method in brief: as §1
# [8] = biological target: GlcNAc(b1-2)[GlcNAc(b1-4)]Man(a1-3)[GlcNAc(b1-4)][GlcNAc(b1-2)Man(a1-6)]Man(b1-4)GlcNAc(b1-4)GlcNAc
# Method in brief: as §1
# [9] = biological target: GlcNAc(b1-2)[GlcNAc(b1-4)]Man(a1-3)[GlcNAc(b1-4)][GlcNAc(b1-2)[GlcNAc(b1-6)]Man(a1-6)]Man(b1-4)GlcNAc(b1-4)GlcNAc
# Method in brief: as §1
# [10] = biological target: GlcNAc(b1-2)[GlcNAc(b1-4)]Man(a1-3)[GlcNAc(b1-4)][GlcNAc(b1-2)[GlcNAc(b1-6)]Man(a1-6)]Man(b1-4)GlcNAc(b1-4)[Fuc(a1-6)]GlcNAc
# Method in brief: as §1
# [11] = biological target: GlcNAc(b1-2)[GlcNAc(b1-6)]Man(a1-6)[GlcNAc(b1-2)Man(a1-3)]Man(b1-4)GlcNAc(b1-4)GlcNAc
# Method in brief: as §1
# [12] = biological target: GlcNAc(b1-2)[GlcNAc(b1-6)]Man(a1-6)[GlcNAc(b1-2)Man(a1-3)]Man(b1-4)GlcNAc(b1-4)[Fuc(a1-6)]GlcNAc
# Method in brief: as §1
# [13] = biological target: GlcNAc(b1-2)[GlcNAc(b1-6)]Man(a1-6)[GlcNAc(b1-4)][GlcNAc(b1-2)Man(a1-3)]Man(b1-4)GlcNAc(b1-4)GlcNAc
# Method in brief: as §1
# GlcNAc(b1-3)Fuc = biological target: GlcNAc(b1-3)Fuc
# Method in brief: as §1
# GlcNAc(b1-3)Gal = biological target: GlcNAc(b1-3)Gal
# Method in brief: as §1
# [14] = biological target: GlcNAc(b1-3)Gal(b1-3)GalNAc
# Method in brief: as §1
# GlcNAc(b1-3)Gal(b1-4)Glc = biological target: GlcNAc(b1-3)Gal(b1-4)Glc
# Method in brief: as §1
# [15] = biological target: GlcNAc(b1-3)Gal(b1-4)GlcNAc
# Method in brief: as §1
# [16] = biological target: GlcNAc(b1-3)Gal(b1-4)GlcNAc(b1-2)Man(a1-3)[GlcNAc(b1-3)Gal(b1-4)GlcNAc(b1-2)Man(a1-6)]Man(b1-4)GlcNAc(b1-4)GlcNAc
# Method in brief: as §1
# [17] = biological target: GlcNAc(b1-3)Gal(b1-4)GlcNAc(b1-2)Man(a1-3)[GlcNAc(b1-3)Gal(b1-4)GlcNAc(b1-2)Man(a1-6)]Man(b1-4)GlcNAc(b1-4)[Fuc(a1-6)]GlcNAc
# Method in brief: as §1
# [18] = biological target: GlcNAc(b1-3)Gal(b1-4)GlcNAc(b1-2)[GlcNAc(b1-3)Gal(b1-4)GlcNAc(b1-6)]Man(a1-6)[GlcNAc(b1-3)Gal(b1-4)GlcNAc(b1-2)Man(a1-3)]Man(b1-4)GlcNAc(b1-4)GlcNAc
# Method in brief: as §1
# [19] = biological target: GlcNAc(b1-3)Gal(b1-4)GlcNAc(b1-3)Gal(b1-4)GlcNAc
# Method in brief: as §1
# [20] = biological target: GlcNAc(b1-3)Gal(b1-4)GlcNAc(b1-3)Gal(b1-4)GlcNAc(b1-2)Man(a1-3)[GlcNAc(b1-3)Gal(b1-4)GlcNAc(b1-3)Gal(b1-4)GlcNAc(b1-2)Man(a1-6)]Man(b1-4)GlcNAc(b1-4)GlcNAc
# Method in brief: as §1
# [21] = biological target: GlcNAc(b1-3)Gal(b1-4)GlcNAc(b1-3)Gal(b1-4)GlcNAc(b1-2)Man(a1-3)[GlcNAc(b1-3)Gal(b1-4)GlcNAc(b1-3)Gal(b1-4)GlcNAc(b1-2)Man(a1-6)]Man(b1-4)GlcNAc(b1-4)[Fuc(a1-6)]GlcNAc
# Method in brief: as §1
# [22] = biological target: GlcNAc(b1-3)Gal(b1-4)GlcNAc(b1-3)Gal(b1-4)GlcNAc(b1-2)[GlcNAc(b1-3)Gal(b1-4)GlcNAc(b1-3)Gal(b1-4)GlcNAc(b1-6)]Man(a1-6)[GlcNAc(b1-3)Gal(b1-4)GlcNAc(b1-3)Gal(b1-4)GlcNAc(b1-2)Man(a1-3)]Man(b1-4)GlcNAc(b1-4)[Fuc(a1-6)]GlcNAc
# Method in brief: as §1
# [23] = biological target: GlcNAc(b1-3)Gal(b1-4)GlcNAc(b1-3)Gal(b1-4)GlcNAc(b1-3)Gal(b1-4)GlcNAc(b1-2)Man(a1-3)[GlcNAc(b1-3)Gal(b1-4)GlcNAc(b1-3)Gal(b1-4)GlcNAc(b1-3)Gal(b1-4)GlcNAc(b1-2)Man(a1-6)]Man(b1-4)GlcNAc(b1-4)GlcNAc
# Method in brief: as §1
# [24] = biological target: GlcNAc(b1-3)Gal(b1-4)GlcNAc(b1-3)Gal(b1-4)GlcNAc(b1-3)Gal(b1-4)GlcNAc(b1-2)Man(a1-3)[GlcNAc(b1-3)Gal(b1-4)GlcNAc(b1-3)Gal(b1-4)GlcNAc(b1-3)Gal(b1-4)GlcNAc(b1-2)Man(a1-6)]Man(b1-4)GlcNAc(b1-4)[Fuc(a1-6)]GlcNAc
# Method in brief: as §1
# [25] = biological target: GlcNAc(b1-3)Gal(b1-4)GlcNAc(b1-3)Gal(b1-4)GlcNAc(b1-3)Gal(b1-4)GlcNAc(b1-2)[GlcNAc(b1-3)Gal(b1-4)GlcNAc(b1-3)Gal(b1-4)GlcNAc(b1-3)Gal(b1-4)GlcNAc(b1-6)]Man(a1-6)[GlcNAc(b1-3)Gal(b1-4)GlcNAc(b1-3)Gal(b1-4)GlcNAc(b1-3)Gal(b1-4)GlcNAc(b1-2)Man(a1-3)]Man(b1-4)GlcNAc(b1-4)[Fuc(a1-6)]GlcNAc
# Method in brief: as §1
# [26] = biological target: GlcNAc(b1-3)Gal(b1-4)GlcNAc(b1-3)Gal(b1-4)GlcNAc(b1-3)Gal(b1-4)GlcNAc(b1-3)Gal(b1-4)GlcNAc(b1-2)Man(a1-3)[GlcNAc(b1-3)Gal(b1-4)GlcNAc(b1-3)Gal(b1-4)GlcNAc(b1-3)Gal(b1-4)GlcNAc(b1-3)Gal(b1-4)GlcNAc(b1-2)Man(a1-6)]Man(b1-4)GlcNAc(b1-4)GlcNAc
# Method in brief: as §1
# [27] = biological target: GlcNAc(b1-3)Gal(b1-4)GlcNAc(b1-3)Gal(b1-4)GlcNAc(b1-3)Gal(b1-4)GlcNAc(b1-3)Gal(b1-4)GlcNAc(b1-2)Man(a1-3)[GlcNAc(b1-3)Gal(b1-4)GlcNAc(b1-3)Gal(b1-4)GlcNAc(b1-3)Gal(b1-4)GlcNAc(b1-3)Gal(b1-4)GlcNAc(b1-2)Man(a1-6)]Man(b1-4)GlcNAc(b1-4)[Fuc(a1-6)]GlcNAc
# Method in brief: as §1
# [28] = biological target: GlcNAc(b1-3)Gal(b1-4)GlcNAc(b1-3)Gal(b1-4)GlcNAc(b1-3)Gal(b1-4)GlcNAc(b1-3)Gal(b1-4)GlcNAc(b1-2)[GlcNAc(b1-3)Gal(b1-4)GlcNAc(b1-3)Gal(b1-4)GlcNAc(b1-3)Gal(b1-4)GlcNAc(b1-3)Gal(b1-4)GlcNAc(b1-6)]Man(a1-6)[GlcNAc(b1-3)Gal(b1-4)GlcNAc(b1-3)Gal(b1-4)GlcNAc(b1-3)Gal(b1-4)GlcNAc(b1-3)Gal(b1-4)GlcNAc(b1-2)Man(a1-3)]Man(b1-4)GlcNAc(b1-4)[Fuc(a1-6)]GlcNAc
# Method in brief: as §1
# [29] = biological target: GlcNAc(b1-3)Gal(b1-4)GlcNAc(b1-3)Gal(b1-4)GlcNAc(b1-3)GalNAc
# Method in brief: as §1
# [30] = biological target: GlcNAc(b1-3)Gal(b1-4)GlcNAc(b1-3)GalNAc
# Method in brief: as §1
# [31] = biological target: GlcNAc(b1-3)Gal(b1-4)GlcNAc(b1-3)[GlcNAc(b1-3)Gal(b1-4)GlcNAc(b1-3)]GalNAc
# Method in brief: as §1
# [32] = biological target: GlcNAc(b1-3)Gal(b1-4)GlcNAc(b1-6)[Gal(b1-3)]GalNAc
# Method in brief: as §1
# [33] = biological target: GlcNAc(b1-3)Gal(b1-4)GlcNAc(b1-6)[GlcNAc(b1-3)Gal(b1-3)]GalNAc
# Method in brief: as §1
# [34] = biological target: GlcNAc(b1-3)Gal(b1-4)GlcNAc(b1-6)[GlcNAc(b1-3)]Gal(b1-4)GlcNAc
# Method in brief: as §1
# GlcNAc(b1-3)GalNAc = biological target: GlcNAc(b1-3)GalNAc
# Method in brief: as §1
# GlcNAc(b1-3)Man = biological target: GlcNAc(b1-3)Man
# Method in brief: as §1
# [35] = biological target: GlcNAc(b1-3)[GlcNAc(b1-4)][GlcNAc(b1-6)]GlcNAc
# Method in brief: as §1
# [36] = biological target: GlcNAc(b1-3)[GlcNAc(b1-6)]Gal(b1-4)GlcNAc
# Method in brief: as §1
# [37] = biological target: GlcNAc(b1-3)[GlcNAc(b1-6)]GalNAc
# Method in brief: as §1
# [38] = biological target: GlcNAc(b1-4)Gal(b1-4)GlcNAc
# Method in brief: as §1
# GlcNAc(b1-4)GlcNAc = biological target: GlcNAc(b1-4)GlcNAc
# Method in brief: as §1
# [39] = biological target: GlcNAc(b1-4)GlcNAc(b1-4)GlcNAc
# Method in brief: as §1
binder,measurement,setting,value
B1,glycan array binding signal (z-score),[1],-0.32
same,glycan array binding signal (z-score),[2],-0.347
same,glycan array binding signal (z-score),[3],-0.344
same,glycan array binding signal (z-score),[4],-0.33
same,glycan array binding signal (z-score),[5],-0.362
same,glycan array binding signal (z-score),[6],-0.35
same,glycan array binding signal (z-score),[7],-0.32
same,glycan array binding signal (z-score),[8],-0.342
same,glycan array binding signal (z-score),[9],-0.343
same,glycan array binding signal (z-score),[10],-0.363
same,glycan array binding signal (z-score),[11],-0.334
same,glycan array binding signal (z-score),[12],-0.332
same,glycan array binding signal (z-score),[13],-0.339
same,glycan array binding signal (z-score),GlcNAc(b1-3)Fuc,-0.306
same,glycan array binding signal (z-score),GlcNAc(b1-3)Gal,-0.333
same,glycan array binding signal (z-score),[14],-0.31
same,glycan array binding signal (z-score),GlcNAc(b1-3)Gal(b1-4)Glc,-0.323
same,glycan array binding signal (z-score),[15],-0.329
same,glycan array binding signal (z-score),[16],-0.328
same,glycan array binding signal (z-score),[17],-0.327
same,glycan array binding signal (z-score),[18],-0.265
same,glycan array binding signal (z-score),[19],-0.335
same,glycan array binding signal (z-score),[20],-0.309
same,glycan array binding signal (z-score),[21],-0.299
same,glycan array binding signal (z-score),[22],-0.303
same,glycan array binding signal (z-score),[23],-0.317
same,glycan array binding signal (z-score),[24],-0.316
same,glycan array binding signal (z-score),[25],-0.264
same,glycan array binding signal (z-score),[26],-0.331
same,glycan array binding signal (z-score),[27],-0.296
same,glycan array binding signal (z-score),[28],-0.276
same,glycan array binding signal (z-score),[29],-0.309
same,glycan array binding signal (z-score),[30],-0.328
same,glycan array binding signal (z-score),[31],-0.333
same,glycan array binding signal (z-score),[32],-0.345
same,glycan array binding signal (z-score),[33],-0.326
same,glycan array binding signal (z-score),[34],-0.311
same,glycan array binding signal (z-score),GlcNAc(b1-3)GalNAc,-0.342
same,glycan array binding signal (z-score),GlcNAc(b1-3)Man,-0.329
same,glycan array binding signal (z-score),[35],-0.347
same,glycan array binding signal (z-score),[36],-0.319
same,glycan array binding signal (z-score),[37],-0.329
same,glycan array binding signal (z-score),[38],-0.283
same,glycan array binding signal (z-score),GlcNAc(b1-4)GlcNAc,-0.33
same,glycan array binding signal (z-score),[39],-0.338
